We go through 19 molecules from the supplement of paper PMC10369915.

What all share (assay): enrichment score (SH2-bound / input frequency) (ratio); bacterial display of known human phosphotyrosine sites (pTyr-Var adds point mutants) read by sequencing; higher = stronger binding; tyrosines were phosphorylated by kinases first
Holding throughout (conditions): peptide library: pTyr-Var

For test [1], the target named is SHP2 C-SH2 domain E139D.
Test [2] deals with SHP2 C-SH2 domain wild-type.
Test [3] has as its target SHP2 N-SH2 domain L43F.
Test [4] has as its target SHP2 N-SH2 domain T42A.
For test [5], the target named is SHP2 N-SH2 domain T52S.
The target of test [6] is SHP2 N-SH2 domain wild-type.

Some of the results follow. Rule as the data show it: active = 3.2 or more and inactive = the rest. Most of these values are background signal.
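Also: displayed peptides selected on beads carrying the immobilized SH2 domain, with library peptides lacking any tyrosine serving as negative controls.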

For the molecule NFADPYRQLQF [CTNND2_Y503_YF], the enrichment score was inactive: 0.813 in test [1]; inactive: 1.03 in test [2]; inactive: 1.99 in test [3]; active: 3.85 in test [4]; inactive: 2.24 in test [5]; inactive: 0.877 in test [6].
On to CVGGFYGGCNE [CTSC_Y352_Y347C], for which the enrichment score in test [1] was inactive: 3.1; in test [2] it was inactive: 2.56; in test [3], inactive: 2.54; in test [4], inactive: 2.38; in test [5] it was inactive: 2.73; in test [6], inactive: 2.14.
As to FETSHYPASPD [CTNND2_Y1217_YF], the enrichment score is inactive: 0.752 in test [1]; inactive: 0.756 in test [2]; inactive: 0.987 in test [3]; inactive: 0.574 in test [4]; inactive: 0.697 in test [5]; inactive: 0.908 in test [6].
Take YETSHYLASPD [CTNND2_Y1217_P1218L]: the enrichment score was inactive: 0.675 in test [1]; inactive: 0.455 in test [2]; inactive: 0.53 in test [3]; inactive: 0.532 in test [4]; inactive: 0.512 in test [5]; inactive: 0.784 in test [6].
Turning to KDFETYQSFQN [CTNND2_Y1157_P1159S_YF], the enrichment score in test [1] is inactive: 0.81; in test [2] it was inactive: 0.641; in test [3] it was inactive: 0.701; in test [4], inactive: 0.715; in test [5], inactive: 0.686; in test [6], inactive: 0.728.
As for YYSSEYHCVGG [CTSC_Y345_Y347C], the enrichment score in test [1] is inactive: 1.1; in test [2] it was inactive: 1.02; in test [3], inactive: 0.984; in test [4] it was inactive: 0.921; in test [5], inactive: 0.888; in test [6], inactive: 1.16.
As for KDYETYQPFQN [CTNND2_Y1157], the enrichment score is inactive: 1.08 in test [1]; inactive: 0.938 in test [2]; inactive: 0.73 in test [3]; inactive: 0.763 in test [4]; inactive: 0.632 in test [5]; inactive: 0.736 in test [6].
In the case of FVGGFYGGCNE [CTSC_Y352_YF], the enrichment score in test [1] is inactive: 1.11; in test [2] it was inactive: 1.3; in test [3] it was inactive: 0.962; in test [4], inactive: 0.943; in test [5] it was inactive: 0.802; in test [6] it was inactive: 1.17.
Turning to NYADPYRQLQY [CTNND2_Y503], the enrichment score in test [1] was inactive: 0.838; in test [2], inactive: 0.992; in test [3] it was inactive: 0.858; in test [4], inactive: 0.872; in test [5], inactive: 0.742; in test [6], inactive: 0.828.
On to SSEFHCVGGFF [CTSC_Y347_Y347C_YF], for which the enrichment score in test [1] is inactive: 0.76; in test [2], inactive: 0.837; in test [3] it was inactive: 0.574; in test [4], inactive: 0.682; in test [5] it was inactive: 0.503; in test [6] it was inactive: 0.923.
For the molecule PSRKDYETFQP [CTNND2_Y1154_YF], the enrichment score is inactive: 0.863 in test [1]; inactive: 0.527 in test [2]; inactive: 1.11 in test [3]; inactive: 0.569 in test [4]; inactive: 0.401 in test [5]; inactive: 0.856 in test [6].
With SSEYHYVGGFY [CTSC_Y347], the enrichment score was inactive: 1.1 in test [1]; inactive: 2.3 in test [2]; inactive: 0.964 in test [3]; inactive: 1.57 in test [4]; inactive: 0.907 in test [5]; inactive: 0.854 in test [6].
As for FETSHYLASPD [CTNND2_Y1217_P1218L_YF], the enrichment score in test [1] was inactive: 1.09; in test [2] it was inactive: 0.777; in test [3] it was inactive: 0.993; in test [4], inactive: 0.863; in test [5], inactive: 0.849; in test [6], inactive: 0.991.
As for TTPAVYARVTK [CTRB2_Y246_A250T], the enrichment score is inactive: 0.504 in test [1]; inactive: 1.31 in test [2]; inactive: 0.724 in test [3]; inactive: 0.621 in test [4]; inactive: 0.887 in test [5]; inactive: 0.481 in test [6].
With SSEYHCVGGFY [CTSC_Y347_Y347C], the enrichment score in test [1] is inactive: 0.567; in test [2] it was inactive: 0.817; in test [3], inactive: 0.819; in test [4] it was inactive: 0.858; in test [5], inactive: 0.615; in test [6] it was inactive: 1.06.
For the molecule PSRKDYETFQS [CTNND2_Y1154_P1159S_YF], the enrichment score in test [1] was inactive: 0.433; in test [2], inactive: 0.373; in test [3], inactive: 0.562; in test [4] it was inactive: 0.367; in test [5], inactive: 0.531; in test [6], inactive: 0.307.
As for KDFETYQPFQN [CTNND2_Y1157_YF], the enrichment score is inactive: 0.715 in test [1]; inactive: 0.505 in test [2]; inactive: 0.822 in test [3]; inactive: 0.673 in test [4]; inactive: 0.681 in test [5]; inactive: 0.791 in test [6].
Turning to NIFSFYLSRDP [CTSD_Y232], the enrichment score in test [1] was active: 3.94; in test [2], active: 3.21; in test [3] it was active: 3.57; in test [4], inactive: 3.01; in test [5], active: 3.64; in test [6], active: 3.43.
YYSSEYHYVGG [CTSC_Y345]: the enrichment score in test [1] is inactive: 1.36; in test [2], inactive: 1.36; in test [3], inactive: 1.09; in test [4], inactive: 0.969; in test [5], inactive: 1.1; in test [6], inactive: 1.3.
